# This is one part of the list.
# B1: LngA (Escherichia coli) (protein)
# chain: MLSVYNRTQKFKAEARKKIAKYHELRKQRGMSLLEVIIVLGIIGTIAAGVVILAQRAFDSRAVTDLVTNTNTVRVRMKDAYQRDGKYPDFVDPLSLTANTIKTDTSGIPAAQLVQLGKITPDEVRNNISGDFIAIGGALTSNGAQVKKGFAIELNGLSQEQCRSILGQVGNNWEYVAIGTSASGSYAMTATGVDMSVAASTTVLRSLGNNGQTTLTADKILSTCTAQVNSITLGSR
# What was measured:
# Assay in all cases: glycan array binding signal (z-score within array); higher = stronger binding
# Conditions in all cases: glycan notation: IUPAC condensed, linker removed
# [1] = biological target: Gal(b1-4)Glc
# Procedure, shortened: (§1)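 Arrays were curated from the Consortium for Functional Glycomics database, 3228 in total, and kept only where the protein sequence was available. Binding is expressed as a within-array Z-score. This score was averaged across arrays of the same protein sequence at different concentrations or buffers and across linkers, and negative values can be read as non-binding.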
# [2] = biological target: Gal(b1-4)Glc6S
# Procedure, shortened: as §1
# [3] = biological target: Gal(b1-4)GlcNAc
# Procedure, shortened: as §1
# [4] = biological target: Gal(b1-4)GlcNAc(a1-6)Gal(b1-4)GlcNAc
# Procedure, shortened: as §1
# [5] = biological target: Gal(b1-4)GlcNAc(b1-2)Man
# Procedure, shortened: as §1
# [6] = biological target: Gal(b1-4)GlcNAc(b1-2)Man(a1-3)Man(b1-4)GlcNAc(b1-4)GlcNAc
# Procedure, shortened: as §1
# [7] = biological target: Gal(b1-4)GlcNAc(b1-2)Man(a1-3)[Gal(b1-4)GlcNAc(b1-2)Man(a1-6)]Man(b1-4)GlcNAc(b1-4)GlcNAc
# Procedure, shortened: as §1
# [8] = biological target: Gal(b1-4)GlcNAc(b1-2)Man(a1-3)[Gal(b1-4)GlcNAc(b1-2)Man(a1-6)]Man(b1-4)GlcNAc(b1-4)[Fuc(a1-6)]GlcNAc
# Procedure, shortened: as §1
# [9] = biological target: Gal(b1-4)GlcNAc(b1-2)Man(a1-3)[Gal(b1-4)GlcNAc(b1-2)Man(a1-6)][Gal(b1-4)GlcNAc(b1-4)]Man(b1-4)GlcNAc(b1-4)[Fuc(a1-6)]GlcNAc
# Procedure, shortened: as §1
# [10] = biological target: Gal(b1-4)GlcNAc(b1-2)Man(a1-3)[Gal(b1-4)GlcNAc(b1-2)Man(a1-6)][GlcNAc(b1-4)]Man(b1-4)GlcNAc(b1-4)[Fuc(a1-6)]GlcNAc
# Procedure, shortened: as §1
# [11] = biological target: Gal(b1-4)GlcNAc(b1-2)Man(a1-3)[GlcNAc(b1-2)Man(a1-6)]Man(b1-4)GlcNAc(b1-4)GlcNAc
# Procedure, shortened: as §1
# [12] = biological target: Gal(b1-4)GlcNAc(b1-2)Man(a1-3)[GlcNAc(b1-4)][Gal(b1-4)GlcNAc(b1-2)Man(a1-6)]Man(b1-4)GlcNAc(b1-4)GlcNAc
# Procedure, shortened: as §1
# [13] = biological target: Gal(b1-4)GlcNAc(b1-2)Man(a1-3)[Man(a1-6)]Man(b1-4)GlcNAc(b1-4)GlcNAc
# Procedure, shortened: as §1
# [14] = biological target: Gal(b1-4)GlcNAc(b1-2)Man(a1-6)Man(b1-4)GlcNAc(b1-4)GlcNAc
# Procedure, shortened: as §1
# [15] = biological target: Gal(b1-4)GlcNAc(b1-2)Man(a1-6)[GlcNAc(b1-2)Man(a1-3)]Man(b1-4)GlcNAc(b1-4)GlcNAc
# Procedure, shortened: as §1
# [16] = biological target: Gal(b1-4)GlcNAc(b1-2)Man(a1-6)[Man(a1-3)]Man(b1-4)GlcNAc(b1-4)GlcNAc
# Procedure, shortened: as §1
# [17] = biological target: Gal(b1-4)GlcNAc(b1-2)[Gal(b1-4)GlcNAc(b1-4)]Man(a1-3)[Gal(b1-4)GlcNAc(b1-2)Man(a1-6)]Man(b1-4)GlcNAc(b1-4)GlcNAc
# Procedure, shortened: as §1
# [18] = biological target: Gal(b1-4)GlcNAc(b1-2)[Gal(b1-4)GlcNAc(b1-4)]Man(a1-3)[Gal(b1-4)GlcNAc(b1-2)[Gal(b1-4)GlcNAc(b1-6)]Man(a1-6)]Man(b1-4)GlcNAc(b1-4)GlcNAc
# Procedure, shortened: as §1
# [19] = biological target: Gal(b1-4)GlcNAc(b1-2)[Gal(b1-4)GlcNAc(b1-4)]Man(a1-3)[GlcNAc(b1-4)][Gal(b1-4)GlcNAc(b1-2)Man(a1-6)]Man(b1-4)GlcNAc(b1-4)GlcNAc
# Procedure, shortened: as §1
# [20] = biological target: Gal(b1-4)GlcNAc(b1-2)[Gal(b1-4)GlcNAc(b1-4)]Man(a1-3)[GlcNAc(b1-4)][Gal(b1-4)GlcNAc(b1-2)[Gal(b1-4)GlcNAc(b1-6)]Man(a1-6)]Man(b1-4)GlcNAc(b1-4)GlcNAc
# Procedure, shortened: as §1
# [21] = biological target: Gal(b1-4)GlcNAc(b1-2)[Gal(b1-4)GlcNAc(b1-6)]Man(a1-6)[Gal(b1-4)GlcNAc(b1-2)Man(a1-3)]Man(b1-4)GlcNAc(b1-4)GlcNAc
# Procedure, shortened: as §1
# [22] = biological target: Gal(b1-4)GlcNAc(b1-2)[Gal(b1-4)GlcNAc(b1-6)]Man(a1-6)[Gal(b1-4)GlcNAc(b1-2)Man(a1-3)]Man(b1-4)GlcNAc(b1-4)[Fuc(a1-6)]GlcNAc
# Procedure, shortened: as §1
binder,measurement,setting,value
B1,glycan array binding signal (z-score),[1],-0.026
same,glycan array binding signal (z-score),[2],1.62
same,glycan array binding signal (z-score),[3],-0.161
same,glycan array binding signal (z-score),[4],-0.522
same,glycan array binding signal (z-score),[5],-0.208
same,glycan array binding signal (z-score),[6],-0.325
same,glycan array binding signal (z-score),[7],-0.412
same,glycan array binding signal (z-score),[8],-0.453
same,glycan array binding signal (z-score),[9],-0.407
same,glycan array binding signal (z-score),[10],-0.61
same,glycan array binding signal (z-score),[11],-0.469
same,glycan array binding signal (z-score),[12],-0.51
same,glycan array binding signal (z-score),[13],-0.393
same,glycan array binding signal (z-score),[14],-0.416
same,glycan array binding signal (z-score),[15],-0.45
same,glycan array binding signal (z-score),[16],-0.463
same,glycan array binding signal (z-score),[17],0.247
same,glycan array binding signal (z-score),[18],-0.565
same,glycan array binding signal (z-score),[19],-0.15
same,glycan array binding signal (z-score),[20],0.155
same,glycan array binding signal (z-score),[21],-0.145
same,glycan array binding signal (z-score),[22],-0.513
